The source of these data is article PMC11121837, “Impact of Nitric Oxide-Release Kinetics on Antifungal Activity” (Journal of Fungi, 2024).

This assay has as its system A. fumigatus (ATCC 1022) spores.
Where [1] appears, read: NO donor (24 h pretreatment of spores) then 5-fluorocytosine.
The mark [2] stands for this setting: NO donor (24 h pretreatment of spores) then amphotericin B.
The mark [3] stands for this setting: NO donor (24 h pretreatment of spores) then caspofungin.
Where [4] appears, read: NO donor (24 h pretreatment of spores) then fluconazole.
[5] abbreviates: NO donor (24 h pretreatment of spores) then miconazole.
The mark [6] stands for this setting: NO donor (24 h pretreatment of spores) then butenafine.

Each structure is given as a SMILES string. Read-outs that look alike come from different tables or passages of the source. Where only a bound is given, the exact number is not on record here.

As to `NCCN(CCN)/[N+]([O-])=N/O` [DETA/NO, diethylenetriamine/NO], the checkerboard classification entry was “I (indifferent (I))” under setting [1]; “I (indifferent (I))” under setting [2]; “I (indifferent (I))” under setting [3]; “I (indifferent (I))” under setting [4]; “I (indifferent (I))” under setting [5]. In addition, the “∑FIC” value is on record as not below 1 under setting [1]; not below 1 under setting [2]; not below 1 under setting [3]; not below 1 under setting [4]; not below 1 under setting [5].
In the case of `NCCCNCCCCN(CCCN)/[N+]([O-])=N/O` [SPER/NO, spermine/NO], the checkerboard classification result is “I (indifferent (I))” under setting [1]; “I (indifferent (I))” under setting [2]; “I (indifferent (I))” under setting [6]; “I (indifferent (I))” under setting [3]; “I (indifferent (I))” under setting [4]; “I (indifferent (I))” under setting [5]. Further, the “∑FIC” value is given as not below 1 under setting [1]; not below 1 under setting [2]; not below 1 under setting [6]; not below 1 under setting [3]; not below 1 under setting [4]; not below 1 under setting [5].
For the molecule `NCCCN(CCCN)/[N+]([O-])=N/O` [DPTA/NO, bis(3-aminopropyl) amine/NO], the checkerboard classification result reads like this: under setting [1], “I (indifferent (I))”; under setting [2], “I (indifferent (I))”; under setting [6], “I (indifferent (I))”; under setting [3], “I (indifferent (I))”; under setting [4], “I (indifferent (I))”; under setting [5], “I (indifferent (I))”. The “∑FIC” value is recorded as not below 1 under setting [1]; not below 1 under setting [2]; not below 1 under setting [6]; not below 1 under setting [3]; not below 1 under setting [4]; not below 1 under setting [5].
